# Data: PubChem BioAssay AID2546 (National Center for Advancing Translational Sciences (NCATS), 2010)
# The campaign covered roughly 310,000 compounds. About 11,000 (3.5%) were called active. The inconclusive results got no clear call from the source; some entries with a clear call stand among them for comparison. Calls follow the shape of the dose curve; as a rule, active = well fitted inhibition curve with a large enough effect; inconclusive = small, poorly fitted or top-dose-only effect, or effect the other way; inactive = flat fitted curve, though single readings scatter. No potency is given beside an inconclusive call; the fits are too rough.
# Test: VP16 counterscreen qHTS for inhibitors of ROR gamma transcriptional activity;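 also: Gal4-VP16 expression switched on by copper sulfate through the metallothionein promoter; nearly all actives have a fitted effect of over 50% in size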
# Details: Drosophila S2 Gal4-VP16 UAS-luciferase, luminescence, 20 h; activity, negative = inhibition: at 53.6 µM (top of the series)
# % is scaled to controls: 0 for no effect and ±100 for the full control effect; potency is read from the fitted curve at half-maximal effect; tags tell the direction and shape of the fitted curve.
SMILES,"activity, negative = inhibition",Potency
O=C(Nc1cccc(S(=O)(=O)N2CCOCC2)c1)[C@@H]1CCCN1S(=O)(=O)c1ccc(Cl)cc1,inactive: -2.65%,
COC(CNC(=O)c1ccc2c3c(onc13)-c1ccccc1C2=O)OC,,"inconclusive [inhibitor, single point]"
CSc1nsc(SC)c1C(=O)N1CCN(S(=O)(=O)c2ccc(C)cc2)C1C(C)C (configuration not stated),inactive: -8.04%,
O=C(/C=C/c1ccc(F)cc1)Nc1ccc2[nH]c(=O)[nH]c2c1,inactive: -0.74%,
CN1CCN(C(=O)c2ccc(COc3ccc(C(C)(C)C)cc3)o2)CC1,,"inconclusive [inhibitor, single point]"
CC1Cc2ccccc2N1C(=O)CSc1nnnn1C1CCCC1 (configuration not stated),,"inconclusive [inhibitor, single point]"
COc1ccccc1CNc1ncncc1-c1ccccc1C(F)(F)F,inactive: 4.22%,
CCc1ccc(/C=C2\SC(N3CCCC3)=NC2=O)cc1,,"inconclusive [inhibitor, single point]"
Cc1ccc(-n2nc3ccc(NC(=O)c4ccc5c(c4)OCO5)cc3n2)cc1,,"inconclusive [inhibitor, single point]"
COc1ccccc1C(=O)Nc1nnc(-c2ccc(F)cc2)o1,,active: 11.2 µM
COc1ccc(-c2nnn(CC(=O)N(Cc3ccccc3Cl)C(C(=O)NCC3CCCO3)c3ccco3)n2)cc1OC (configuration not stated),inactive: 16.4%,
N=c1sccn1CC(=O)Nc1cccc(S(=O)(=O)N2CCCCCC2)c1,inactive: -0.886%,
CC(C)(C)C(=O)C(Cl)C(=O)Nc1ccccc1 (configuration not stated),,"inconclusive [inhibitor, single point]"
CC(C)n1cc(CN2CCC(C(=O)Nc3ccc(Oc4ccccc4F)cc3)CC2)cn1,,"inconclusive [inhibitor, single point]"
CCN(CC)CCC(=O)c1ccc(F)cc1,,"inconclusive [inhibitor, single point]"
CCOC(=O)c1c(C)[nH]c(C)c1S(=O)(=O)N(C)CC(=O)N(C)Cc1ccccc1,,"inconclusive [inhibitor, partial curve]"
CC(C)(C)c1ccc(NC(=O)C2CCCN(c3cnccn3)C2)cc1 (configuration not stated),,"inconclusive [inhibitor, single point]"
C=CCOc1ccccc1CNc1ccccc1C,,"inconclusive [activator, single point]"
CN1C(=O)CC(N2CCN(c3ccc(Cl)cc3)CC2)C1=O (configuration not stated),,"inconclusive [inhibitor, full curve, poor fit]"
CC(C)C(NC(=S)Nc1ccccc1)C(=O)O (configuration not stated),,"inconclusive [inhibitor, single point]"
CCS(=O)(=O)c1nnnn1-c1ccccc1S(C)(=O)=O,,"inconclusive [inhibitor, single point]"
Cc1ccc(COc2ccc(S(=O)(=O)N3CCCC3)cc2C(N)=O)cc1,,"inconclusive [inhibitor, single point]"
Nc1n[nH]c(N)c1N=Nc1ccc(F)cc1,inactive: -3.21%,
Oc1c(CN2CCCCC2)cc(Br)c2cccnc12,,active: 1 µM

SMILES,"activity, negative = inhibition",Potency
CC1CCCN(CCCNC(=O)c2ccc3c(c2)N(Cc2ccccc2F)C(=O)c2ccccc2S3(=O)=O)C1 (configuration not stated),,"inconclusive [activator, single point]"
O=C(Nc1nnc(CCc2ccccc2)s1)c1ccccc1F,,"inconclusive [activator, single point]"
CCCCCCC1CC(CC(=O)Nc2ccc([N+](=O)[O-])cc2)C(=O)O1 (configuration not stated),,"inconclusive [inhibitor, single point]"
C/C(=N\NC(=O)c1ccccc1O)c1ccc(Br)s1,,active: 2 µM
CCn1nc(C(=O)Nc2nc3ccccc3[nH]2)c2ccccc2c1=O,,"inconclusive [inhibitor, single point]"
CC(/C=N/NC(=O)c1ccco1)=C\c1ccccc1,,"inconclusive [inhibitor, partial curve]"
CC(C)(C)n1nnnc1C(c1ccc(C(F)(F)F)cc1)N(Cc1ccccc1)Cc1ccco1 (configuration not stated),,active: 3.98 µM
O=C(CC(Sc1ccccc1)c1cccs1)c1ccco1 (configuration not stated),inactive: 0.793%,
CCOC(=O)c1c(NC(=O)c2ccncc2)sc(C)c1C,inactive: 6.19%,
COc1ccc(-c2cn3cc(C)ccc3n2)cc1OC,,"inconclusive [inhibitor, partial curve, poor fit]"
CCCc1cc(-c2n[nH]c(=S)n2-c2cccc(C)c2)cs1,,"inconclusive [inhibitor, partial curve, poor fit]"
COc1cc(CCCN2C(=S)NC[C@@H]2c2ccccc2)cc(OC)c1OC,,"inconclusive [inhibitor, single point]"
COCCNc1ccc([N+](=O)[O-])cc1C(=O)Nc1cccc(C)n1,inactive: -19.9%,
CC1(C)Cc2c(c(N3CCCC3)nc3sc(C(=O)Nc4ccccc4)c(N)c23)CO1,,"inconclusive [inhibitor, single point]"
Cc1cccc(NC(=O)CC2c3ccccc3Oc3ccccc32)c1,,"inconclusive [activator, single point]"
Cc1cc(C)cc(N(CC(=O)NC2CCCC2)C(=O)CCC(=O)Nc2cc(C)on2)c1,inactive: -10.9%,
COc1cc(OC)cc(-c2cc3nc(C)c(CCC(=O)Nc4nc(C)cs4)c(C)n3n2)c1,,"inconclusive [inhibitor, partial curve]"
Cc1cnc(CNC(=O)c2ccc3oc(C(C)C)nc3c2)[nH]1,inactive: -2.85%,
Sc1oc(-c2ccccc2)cc1C=Nc1ccccc1,,active: 17.8 µM
CCc1sc(C(=O)Nc2nccs2)cc1C,,"inconclusive [inhibitor, single point]"
COC(=O)c1ccc(C(=O)Nc2nnc(-c3cccnc3)o2)cc1,,active: 2.82 µM
COc1ccc(S(=O)(=O)N2CCN(c3cc(-c4ccccc4)nc4ncnn34)CC2)cc1,,"inconclusive [inhibitor, single point]"
Cc1nc(NCc2ccccc2)c2nc(-c3ccccc3)n(CCN3CCOCC3)c2n1,inactive: 2.1%,
